This note sets out measurements from the RNAGym collection of RNA variant scans (doi:10.7554/elife.90254).

Sequences and labels used below:
B1: OR4K15 (parent)
chain: GUUAACGGUCAUAGGCCAUGGAAACUAGGAGCACCAUUUCGCUGCCAGUGAAGAAAUGAACAAAGAAAAUCUGGGCCAGGCAGGCAUCAAAAGAAAUAGUCUUGCGCUCAACCAGAAAGUCUGUAAUCAUUUUAAGGGUA

The source gives no read counts; variants with many changes may rest on few reads.

Variants of B1 are the subject of the data set. The data set can be described thus: self-cleavage, relative activity (ratio to wild type); higher = more cleavage; in vitro, sequencing; the parent is a self-cleaving ribozyme.
As to A30G A60G A66G A117G, the self-cleavage came out at 1.24.

A30G A69G A118G: the self-cleavage was 1.55.

As to A30G U39A A125G A126G, the self-cleavage came to 0.47. Take A30G U49A A126U: the self-cleavage was found to be 0.89. Regarding A27U A96G A118G, the self-cleavage came to 1.15. Turning to A30G A59G U103G U122C, the self-cleavage was 0.03. As to A27G A69G A89G U103C, the self-cleavage was determined as 0.85. Consider A27G A30G A36G U103C, for which the self-cleavage was 0.22.

Turning to G28A A47U U70C A94G, the self-cleavage was determined as 0.45. To A30U U72C A89G U102C belongs 0.14; to A30G U72C A91G, 0.04. With A30G A33G A36U A59G U70C A95G G137C, the self-cleavage was 0.99. Turning to A27G U38C U127C, the self-cleavage amounted to 0.22. Regarding A30G A92G A114C, the self-cleavage was determined as 0.01.

Turning to A30G U122C A129G, the self-cleavage stood at 0.55. Regarding A30G U49C A66G U70C U72C U122G, the self-cleavage is 0.16. For A30U A67G G115A A125G, the self-cleavage is 0.03. A30G A36G U122C: the self-cleavage was found to be 0.75.

As to A30G A56G A59G, the self-cleavage came out at 1.17. As for A30G A33G U102C, the self-cleavage came out at 1.15. A30G A69U U100C U108A: the self-cleavage amounted to 0.11. Regarding A27U A33G U108C, the self-cleavage was 0.03. In the case of A30G A52G A54G G83U, the self-cleavage was found to be 0.7. To A30G U72A A89U U100C A111G G123A U130C U139C belongs 0. Turning to A30G A60G A96G, the self-cleavage was 0.38. On to A30G A59G A62G A82G A86G, for which the self-cleavage was 0.1. As to A27G U37C U39C A67G, the self-cleavage is 1.09. With G29A A96G U130G, the self-cleavage amounted to 1.51.

On to A30G U38C A92G A98G U103C, for which the self-cleavage turned out to be 0.54. As for A30G G44U U120C, the self-cleavage is 0.84. As to U26G A54G U102C, the self-cleavage came to 1.68. Under G31A U38C A64U A78U stands 0.51; under A27U A114G A118G, 0.44. Take A27U U39A U57C A78C A98G: the self-cleavage turned out to be 0.18. Take A30U U100A U130C: the self-cleavage stood at 0.39. Consider A27G A47U A110G, for which the self-cleavage came out at 0.05.

Turning to A27U U87A A94U, the self-cleavage came to 1.51. As for G29U A52G A59U A114G, the self-cleavage turned out to be 0.1.

Turning to A30U A33G U70C U87C A129G U131C, the self-cleavage was determined as 0.14. In the case of A30G U49C A135G, the self-cleavage was determined as 1.31. Take A30G U100C U122A A126G: the self-cleavage is 1.03. On to A27C U39A G106U, for which the self-cleavage turned out to be 0.03.

As to G29C A64G U70C U132A, the self-cleavage was determined as 0.45.

For the variant A27G U70C A98U A114G, the self-cleavage stood at 0.37.

In the case of G28A C46A A78G, the self-cleavage came out at 0.34. As to A27G U43G A51G A63G U108C, the self-cleavage turned out to be 0.04.

As to G31C U57C A86G A111U U131C, the self-cleavage is 0.02. As to A30G A66G A94G, the self-cleavage was found to be 1.06. For the variant A27G A89U A90G A129G, the self-cleavage was found to be 0.93. Turning to A30U A89G A116G, the self-cleavage turned out to be 0.87. Take A30G A66U A126U: the self-cleavage amounted to 0.96. For A27U A126U A135G, the self-cleavage was 1.5.

Take G29U U39C U131C A135G: the self-cleavage came to 0.71. On to G28A U120A A135G, for which the self-cleavage worked out at 1.64. Under G31A A33U A68G A86G A117G stands 1.49; under A27G G80A A125G U132C, 0.05; under A27G G48U A90G A94G U102C, 1.05.

With A30G U38C A51G A62G A68G A95G, the self-cleavage came out at 0.85.

Turning to A27G A54G A60G A86U A140U, the self-cleavage amounted to 1.09. Turning to A30G A64G U87C A118G, the self-cleavage is 0.6. A30U A56G A117C A135G: the self-cleavage amounted to 0.63.

A30G A33G G83A: the self-cleavage stood at 1.67. Take A30U U43C A62G A94G G106U: the self-cleavage is 0.04. Regarding A30G A47G A92G A110U C113U, the self-cleavage came to 0.01. For the variant A30G U37C A86G, the self-cleavage worked out at 0.94. As for A30U G31U A54G A56G A66G U102C, the self-cleavage was determined as 2.02. For A30G A33G U70C A117G, the self-cleavage was 1.57.

A30C A78G U120C U122A: the self-cleavage came to 0.07. Under A30G A111U A129G stands 0.06. For the variant A30G U87C A92G A116U, the self-cleavage amounted to 0.27. Regarding A30G U39C A68G U70C U122C, the self-cleavage stood at 0.63.

For the variant A30G A60G A91U, the self-cleavage was 1.86. Consider A30G U49C A52G U70C, for which the self-cleavage is 1.

In the case of A30G A82G A140U, the self-cleavage was determined as 0.59. Take A30G A54G A56G: the self-cleavage was determined as 1.06. On to A30G G44U A47U A114G U127C, for which the self-cleavage is 0.14. As to A30G A56G A59G A82U A117G, the self-cleavage stood at 0.4. As for A27G U49C G74U A116G U132C, the self-cleavage is 0.11. A30G U43C A68G A86G A89U: the self-cleavage was 0.82. Turning to A30U A54G U108C, the self-cleavage is 0.02. Turning to A27U U57C U103C, the self-cleavage came to 0.94.

For the variant A30G A47C A59G A60U, the self-cleavage was found to be 0.79. For A27G U100C C128U U132C, the self-cleavage stood at 2.04. For A30G U39C A64G U102C, the self-cleavage came to 1.12. As to A27G U37C A51G A110G, the self-cleavage came out at 0.11.

Turning to A30G U39C A126G, the self-cleavage was determined as 2.34. On to A30U U57A A66G U103A U127C, for which the self-cleavage was 0.26. For the variant A27G A67G A86G U100A U124A, the self-cleavage came out at 0.33. Consider A30G A69C A89G U108A, for which the self-cleavage stood at 0.03. For the variant A27G C61A U100C U127A, the self-cleavage was determined as 2.9. Turning to G29U C88U A89G A117U, the self-cleavage stood at 0.62. A30G A51U A96G: the self-cleavage was 1.72. Regarding G28A A94G A126G U127C, the self-cleavage was determined as 0.87. In the case of A30G A114U A117G U124C, the self-cleavage came to 0.

A27G A30G G73U A86U: the self-cleavage came to 0.

In the case of A27U A36C A62G, the self-cleavage came out at 1.43. On to A30G A89U U122C, for which the self-cleavage stood at 1.3. Consider C32G A55G A116U, for which the self-cleavage worked out at 0.06.

Turning to A27G A52G A56G A96G A110G, the self-cleavage stood at 0.19. As for A30C A95G A126G, the self-cleavage came to 0.94. For the variant A30G A82U A114G U132C, the self-cleavage is 0.03.

Turning to A27U A69G U108C U122C, the self-cleavage came out at 0. For the variant A30G U43C A98G, the self-cleavage is 0.56. Regarding A30G A90G A117G U130C, the self-cleavage turned out to be 0.66. As to A30U U49C A91G A96G A111G, the self-cleavage was found to be 0.02. A27G U38C A67G: the self-cleavage came out at 1.78. In the case of G31C U70C A94G, the self-cleavage worked out at 1.42.

For the variant A27G A68G U132A, the self-cleavage came to 1.4. Regarding A30G A94G U102C, the self-cleavage stood at 1.24. With A27G U70C A114C, the self-cleavage is 0.04. Turning to A27G A55U A110G, the self-cleavage was 0.21.

For A30U A68G C71A A86G, the self-cleavage was 0.32. In the case of A30C U72G A90G, the self-cleavage stood at 0.36. With A30G A33G U38C A59G, the self-cleavage was found to be 1.41. For the variant G29U A54G A96G, the self-cleavage was determined as 1.93. Consider A27G A69G A116G A118G, for which the self-cleavage came to 0.81. For the variant U26G G41A A94G, the self-cleavage stood at 1.13. Under A27G A114U A117U A125G stands 0.02; under A30U A51G A55G A60G A78U, 0.11; under A30G A36U U103C, 0.46. G31A A68G A86U U87C A111G U133A: the self-cleavage worked out at 0.01.

Take A27G U38C A51U A54G A67G U108C: the self-cleavage worked out at 0.01. A30G A64G A68G: the self-cleavage came out at 0.94. A30U U122C U127C: the self-cleavage is 0.92. Under A27G A66G A114G U139A stands 0.67.

Consider A30G A55G A60G, for which the self-cleavage worked out at 0.73.

Turning to A30G A33G U38C A47G A125G G137A, the self-cleavage was 0.17.

As for A30U U120C A126G, the self-cleavage is 0.28.

A27G A51G A110C: the self-cleavage amounted to 0.45. Regarding A30G A91G U131C, the self-cleavage was 1.37. To A30G A51G A54G U122C U131A belongs 1.71; to A27G U87C U103A, 0.08; to A30G U38C A62G A94G U108G A117G, 0.01.

With A27G A91G A118G, the self-cleavage was found to be 0.42. To G28A A55U A60G A62G belongs 0.28; to A30G C40U U72C C121U U122C A125G, 0.2; to A30G A67G C105U A114G, 0.09.

Consider A30G A33U A114U, for which the self-cleavage came out at 0.09. To A30G A52U U72A A110C U130C belongs 0.02. Under A30G A90G A126G stands 1.39.

With A30U A62G A110G G138A, the self-cleavage amounted to 0.09. Consider A30G U37C A64G C128U, for which the self-cleavage is 1.09. Under A30U G41A A91G stands 1.31; under A27G A33U A118G, 1.59. Regarding A30G U43A A96G G99A A111U U130C, the self-cleavage worked out at 0.04.

As to A27U A90G G136A, the self-cleavage was 1.54.

On to A30G A56G A98U, for which the self-cleavage was found to be 1.42. With A30G U37C A60G A82G, the self-cleavage turned out to be 0.42.

A27G A33G A56G: the self-cleavage was 1.41. For A30G U39C A82G A86C, the self-cleavage is 0.23.

A30G U130C U132C: the self-cleavage was found to be 1.68. Consider G28A A52G A59G, for which the self-cleavage was determined as 0.94. For the variant A30G U57G A59G A63G, the self-cleavage worked out at 0.87. On to A30U A66G A91C A94G U108C U122C, for which the self-cleavage worked out at 0.01. Regarding A30G A51G A54G, the self-cleavage amounted to 1.25. To A27G G44A U49A A55G belongs 1.78; to A27U U38C A68G U122C, 1.4; to A30G A64U U122A, 0.7. With A30G A68G A126G, the self-cleavage was 0.65. A30G U87A U97C U100C: the self-cleavage was 1.99. Take A30G A33G A56G A64G U122C: the self-cleavage was 0.74. For A27U G29U U37C A69G A89G G137U, the self-cleavage stood at 1.49. As for A30G A56G A89G U97A, the self-cleavage turned out to be 1.17. In the case of G28A A33U A118U U131C, the self-cleavage was found to be 0.29.

Consider A27U U38C U133C, for which the self-cleavage amounted to 1.94. On to G29U A36G U38A U49C U131C G138A, for which the self-cleavage was 1.52.

Take G31A A64G U127C: the self-cleavage is 0.46.
